PMC12136788
The list shows a part of the results.

B1: chr5:21408736:21408737:-_ENSMUSG00000042453_ENSMUST00000161356|mus_hu|mus_mus_mus_hu_False|28_28 (ssRNA)
RNA: GGGAGUUCUACAGUCCGACGAUCGUUGACAGAGUUGUAGAUGGUGGCUUCAUGGAACUGGAAAGGGGAGCAGCCAAUGCUGUUAGAAGAGGAAGGAAGGCACUGGGUCUGCACGAGCUGCCAGGAAUCCGAUCUUGCAUCCUUCAACAGAGGAUUGAGCAUCA
B2: chr7:149068622:149068623:-_ENSMUSG00000025139_ENSMUST00000001950|mus_hu|mus_mus_mus_hu_False|1_68 (ssRNA)
RNA: GGGAGUUCUACAGUCCGACGAUCGUGAGGCCUCUGAGUGUGGCUUGUGGUCUGUCCUGGGUUAGAGCUGCUGGUAACACGGAACAUACCAUCUAGAACGUUCCAGUCCCGCCUGACACCUUCAUUCCCAAUGGAGAAUCUGCUCAACAGAGGAUUGAGCAUCA
B3: chr12:54651456:54651457:-_ENSG00000094916_ENST00000209875|hu_hu|motif|central (ssRNA)
RNA: GGGAGUUCUACAGUCCGACGAUCUGUCAGCUGUCCGCUUGGUUUUCUUUCCCAUGUCGCACACCGUUCCACCUGAAAGACGGAGGCCACCAGGUCCCCGGGAUUGAGAGUGAUCACUCACGCUAACGUCUGCCCUGUUCCUGUCAACAGAGGAUUGAGCAUCA
B4: chr14:76904430:76904431:+_ENSMUSG00000022010_ENSMUST00000022587|mus_mus|mus_mus_mus_hu_True|28_98 (ssRNA)
RNA: GGGAGUUCUACAGUCCGACGAUCUGCAGCCAAAAACAGAGAGAGGGAAAAAAAGAGGGAACACCAGCAGCCUUGUAUAAGCUAGAUAAAAUCUUCUGGCUUUCCGCAGCUCAGGGCGAAACAGAAAACGGCAGCCCUAAUUUACAACAGAGGAUUGAGCAUCA
B5: chr4:95585729:95585730:+_ENSG00000163110_ENST00000317968|hu_mus|FALSE|FALSE (ssRNA)
RNA: GGGAGUUCUACAGUCCGACGAUCAAAGGUAAGACCAAUGAUAAGAGCAAAGCAAGUACACUCACUAAACAGAAAAGUUACUGCCUACUCAUAAAAUUUAUUUAGAUUUCUACUUACUAUUUUAAAGAUAAAAUGGUUUUAUUACAACAGAGGAUUGAGCAUCA
B6: chr4:123027775:123027776:-_ENSMUSG00000028649_ENSMUST00000154824|mus_mus|motif|central (ssRNA)
RNA: GGGAGUUCUACAGUCCGACGAUCUUAUCUUGCUGAUAUAGCAAGUCAAGUUUAUAAAGAAGAUGCAUUUAGGAAUAAUCCGGAAAGAUAAAGCAGGUUUAUAACCCUGCACCACAUGAAACCCUAUUUAGAGGCUUUUCUUUUCAACAGAGGAUUGAGCAUCA
B7: chr7:25763974:25763975:-_ENSMUSG00000040907_ENSMUST00000080882|mus_mus|FALSE|FALSE (ssRNA)
RNA: GGGAGUUCUACAGUCCGACGAUCUUUCUCCACCCAACCCCCGGGGUUCCUGCGCAGGAUGAGUUUGCGAAUCUCAUCAUAGACGAAGAUGAGGAAACUGUAGGGGAAGGCACAGAACCACCAGCUGGGCUUGAGAGGGUACAUCAACAGAGGAUUGAGCAUCA
B8: chr15:59323432:59323433:+_ENSG00000157450_ENST00000557998|hu_hu|FALSE|FALSE (ssRNA)
RNA: GGGAGUUCUACAGUCCGACGAUCCACAGUAUCAGAAUCUCCAAAAUGCAGACUAGAUGAAGGAGAAGAAAGACAAUCACUAAAAGAGGAAUCAUUAUCUUCAUCACUUGGUGUCCCUAGGUGUUGCCUCAGUCCUAAUAUUCCCAACAGAGGAUUGAGCAUCA
B9: chr8:104081237:104081238:+_ENSG00000155097_ENST00000518738|hu_hu|FALSE|FALSE (ssRNA)
RNA: GGGAGUUCUACAGUCCGACGAUCAAUGGAAUUAAUGCAUACCAUGAUAUCAAUAAGGAAGAGACCUUCUCUUUAAAUAAACUAUUUUGUUUAUAAAUAAACUCUGAUUUUUUUAGUACACAUUUACAGACCUGAUCAAUAAAACAACAGAGGAUUGAGCAUCA
B10: chr2:26507767:26507768:+_ENSG00000138029_ENST00000317799|hu_hu|FALSE|FALSE (ssRNA)
RNA: GGGAGUUCUACAGUCCGACGAUCCUUGGUUUUUCUACCCAUGUAGUUUUCUGCAAACCAAUCAGAAUCCAUGGCUUUAAAAUUUGCCAAAAUCUGACCCGAGAAAGCUUCAUGAAAUUCAAAAGCAUCAAUAUCAUUCAUGGUCAACAGAGGAUUGAGCAUCA
B11: chr14:31337589:31337590:+_ENSMUSG00000021962_ENSMUST00000022535|mus_hu|motif|central (ssRNA)
RNA: GGGAGUUCUACAGUCCGACGAUCAAAUGACCUGUAUCAUAGAAACGAAGACACUUUCAUUCAAAGAAUAUCUUAAAAUUACGGUUGCUGAAAUAAAUCAAAAUCUACAUUAAAAUAUUACUAAACACCAUUACAUGCCAUAAACAACAGAGGAUUGAGCAUCA
B12: 88154841_88154961_4418_3pUTR_ENSMUSG00000069769_ENSMUST00000107909|mouse|control|control (ssRNA)
RNA: GGGAGUUCUACAGUCCGACGAUCUGCCAGGGAAGAGCCAUUAGCCAAGAGGGUUUCUCCCCCAGGGAAGGUCAGAGGAGGGGGUCCCACAUUCGCUAUUGAGCUUAACUGAAACAAAGACAAAGAUGGACACCAGUGCUGAAACAACAGAGGAUUGAGCAUCA
B13: chr18:65375181:65375182:+_ENSMUSG00000024589_ENSMUST00000163516|mus_mus|FALSE|FALSE (ssRNA)
RNA: GGGAGUUCUACAGUCCGACGAUCAAGUCCCUCCACAGUGAAGUAAGAGUCCUGGAACCCACUCUGCAGCCUCAAGGUAAAUGAUCCACAAUUAUUUGCAGGGCGACAGGAUGGUGUGAUCUCCACAGCUCAGAAGGAAACAGCCAACAGAGGAUUGAGCAUCA
B14: chr6:136600977:136600978:-_ENSG00000029363_ENST00000527536|hu_mus|FALSE|FALSE (ssRNA)
RNA: GGGAGUUCUACAGUCCGACGAUCCGAGACCUAGAACUGUAUCUCUUCUUUCUAGAAUGUGAUCUUGAUCUUGAUCUAGAACUAGACUGUGAUCUAGACUUGGAUCUUGAAGAAUGUGAUCUAGAAUUGGAGCGGCCCAUUUCUCAACAGAGGAUUGAGCAUCA

target: T1, UNK ZnF1-3 (human, UniProt Q9C0B0 31-174); assay: nsRBNS (natural sequence RNA bind-n-seq); RBNS binding buffer (assumed for nsRBNS): 25 mM Tris pH 7.5, 150 mM KCl, 3 mM MgCl2, 0.01% Triton X-100, 500 ug/ml BSA, 20 U/ml SUPERase-In, 4 C; UNK is unkempt and MSI1 is Musashi-1; names of the RNAs are library labels; protein concentration not given here; high values mean tight binding
T1 sequence: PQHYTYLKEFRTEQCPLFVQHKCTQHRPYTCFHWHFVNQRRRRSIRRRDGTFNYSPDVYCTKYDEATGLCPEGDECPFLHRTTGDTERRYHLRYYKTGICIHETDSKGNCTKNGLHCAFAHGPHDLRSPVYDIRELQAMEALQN

| Binder | binding signal [enrichment R] |
| --- | --- |
| B1 | 1.58 |
| B2 | 0.736 |
| B3 | 1.12 |
| B4 | 2.7 |
| B5 | 1.62 |
| B6 | 0.605 |
| B7 | 1.08 |
| B8 | 1.9 |
| B9 | 1.32 |
| B10 | 0.98 |
| B11 | 1.39 |
| B12 | 1.79 |
| B13 | 1.27 |
| B14 | 0.376 |
